Results as given in paper PMC4336329 (PLoS ONE, 2015).
About 2,200 (0.71%) of roughly 310,000 compounds showed an effect of 50% or more. Effects have a minus sign here. Some of the results follow.

Target: human ether-à-go-go-related gene (hERG) potassium channel (human, UniProt Q12809)
Test: primary screen, population patch clamp on CHO cells stably expressing hERG

Sequence of human ether-à-go-go-related gene (hERG) potassium channel (Q12809 whole entry, looked up): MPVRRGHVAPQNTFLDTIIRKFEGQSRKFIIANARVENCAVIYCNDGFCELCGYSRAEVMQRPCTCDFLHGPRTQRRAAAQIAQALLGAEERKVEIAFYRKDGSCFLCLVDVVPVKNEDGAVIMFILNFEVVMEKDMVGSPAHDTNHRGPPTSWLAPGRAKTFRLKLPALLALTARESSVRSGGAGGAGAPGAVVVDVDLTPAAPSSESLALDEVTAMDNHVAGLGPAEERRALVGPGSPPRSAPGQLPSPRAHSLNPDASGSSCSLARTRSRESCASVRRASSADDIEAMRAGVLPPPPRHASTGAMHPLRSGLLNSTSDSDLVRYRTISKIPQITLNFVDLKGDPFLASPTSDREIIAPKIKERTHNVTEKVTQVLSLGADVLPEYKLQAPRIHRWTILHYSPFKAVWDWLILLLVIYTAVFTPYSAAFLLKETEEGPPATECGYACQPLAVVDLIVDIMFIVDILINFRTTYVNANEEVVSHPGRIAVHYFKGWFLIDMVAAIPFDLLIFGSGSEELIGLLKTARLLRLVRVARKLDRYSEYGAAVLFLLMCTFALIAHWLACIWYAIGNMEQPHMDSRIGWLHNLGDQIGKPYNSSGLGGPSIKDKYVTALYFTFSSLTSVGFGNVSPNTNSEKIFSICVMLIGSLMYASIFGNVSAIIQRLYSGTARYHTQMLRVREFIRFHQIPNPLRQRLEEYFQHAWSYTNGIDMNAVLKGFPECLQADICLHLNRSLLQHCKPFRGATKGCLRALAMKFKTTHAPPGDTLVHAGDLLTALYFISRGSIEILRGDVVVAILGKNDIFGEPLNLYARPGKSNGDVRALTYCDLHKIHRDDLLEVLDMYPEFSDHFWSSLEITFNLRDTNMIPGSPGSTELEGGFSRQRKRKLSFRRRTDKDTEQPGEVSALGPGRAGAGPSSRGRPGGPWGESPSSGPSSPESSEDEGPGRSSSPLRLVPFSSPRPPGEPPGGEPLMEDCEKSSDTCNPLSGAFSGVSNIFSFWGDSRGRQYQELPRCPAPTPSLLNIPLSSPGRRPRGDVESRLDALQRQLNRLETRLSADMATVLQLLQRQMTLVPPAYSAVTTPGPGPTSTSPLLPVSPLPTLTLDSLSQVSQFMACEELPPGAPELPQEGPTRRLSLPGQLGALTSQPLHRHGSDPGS

| SMILES | hERG current change (%, negative = inhibition) at 1uM [%] |
| --- | --- |
| Cc1[nH]nc2c1C(c1cn[nH]c1-c1ccc(F)cc1)C(C#N)=C(N)O2 (stereo not drawn) | 15.6 |
| Cc1cccn2c(=O)c3cc(C#N)c(=NC(=O)c4cccnc4)n(CC4CCCO4)c3nc12 (stereo not drawn) | -10.2 |
| COc1ccc(Cl)cc1NC(=O)C1(c2cccs2)CCOCC1 | 4.62 |
| COc1cccc(/C=C(/C#N)c2ccc(Cl)cc2)c1OCc1cccc(C(=O)O)c1 | 14.3 |
| Cc1ncoc1C(=O)N1CCCC(C(=O)c2ccc(-c3ccccc3)cc2)C1 (stereo not drawn) | 10.9 |
| C[N+](C)(C)CC#CCN1CCCC1=O.[I-] | 26.1 |
| COc1cc(/C=C/c2ccc3cccc([N+](=O)[O-])c3n2)ccc1OCC(=O)O | 15.8 |
| COc1ccc(Cl)cc1NC(=O)C1CCCN(c2ncnc3c2nc2n3CCCCC2)C1 (stereo not drawn) | 6.84 |
| CCc1c(C)sc(NC(=O)c2ccoc2C)c1C(N)=O | 12.9 |
| CCCCn1c(N)c(N(CCC(C)C)C(=O)COC(=O)c2ccco2)c(=O)[nH]c1=O | 26.3 |
| Cc1nc(N2CCOCC2)[nH]c(=O)c1CCC(C)C | 0.0143 |
| Cc1cccc(COc2ccc(/C=C3/C(=O)N(C)C(=S)N3C)cc2)c1 | 14.5 |
| CC(=O)Nc1ccc(S(=O)(=O)N(C)CC(=O)OCC(=O)N(C)c2ccccc2)cc1 | 17.9 |
| Cc1cc(=O)[nH]c(SCC(=O)Nc2ccc(S(N)(=O)=O)cc2)n1 | 6.42 |
| CC(C)OC(=O)c1c(N)sc2c1CCCC2 | 4.85 |
| CCn1ncc(/C=N/NC(=O)c2ccc3c(c2)OCO3)c1C | 15.9 |
| Cc1c(-c2nnc(SCC(=O)O)n2-c2ccccc2Br)nnn1-c1ccccc1.O | 11.3 |
| COc1ccc(OC)c(NC(=O)C(=S)NC2CCCCC2)c1 | 13 |
| O=C(CN1CCc2ccccc2C1)Nc1ccccc1F | 12.9 |
| COc1ccc(/C=N/NC(=O)c2cc(-c3cccnc3)nc3ccccc23)c(OC)c1 | 13.9 |
| CCC1C(=O)NCCN1C(=O)c1ccc2nc(Cc3cccc(Cl)c3)oc2c1 (stereo not drawn) | 2.61 |
| O=C1NC(c2ccco2)Nc2ccccc21 (stereo not drawn) | 6.51 |
| C[C@H](NC(=O)c1nc[nH]c1C(=O)NCC(=O)OCc1ccccc1)c1ccccc1 | 6.35 |

| SMILES | hERG current change (%, negative = inhibition) at 1uM [%] |
| --- | --- |
| CCc1ccccc1N(CC)C(=O)C1CCN(c2ncnc3c2nc2n3CCCCC2)CC1 | 1.87 |
| COc1ccc(CN2Cc3cccc4c3[C@@H](CC2=O)[C@H](O)[C@H](O)C4)cc1 | 11.4 |
| N#C/C(=C/c1ccc(N2CCCCCC2)o1)c1ccc(Cl)cc1 | 11.3 |
| COc1ccccc1CNC(=O)CCSCc1cccc(Cl)c1 | 1.23 |
| O=P(OC1CCCCC1)(OC1CCCCC1)C(O)c1ccc(Cl)cc1Cl (stereo not drawn) | -3.1 |
| CSc1nc2ccc(Br)cc2[nH]1 | 9.82 |
| Cc1cccc(OCc2nnc(-c3ccc(F)cc3)o2)c1 | 15.9 |
| O=C(Nc1nc(-c2ccc(Cl)cc2)cs1)C1=COCCO1 | 9.53 |
| Cc1nc(N2CCN(C(=O)c3ccco3)CC2)c(C#N)c2c1CCCC2 | 11.8 |
| O=C(CCc1ccccc1)Nc1cccc(NC(=O)CCc2ccccc2)c1 | 1.59 |
| Cc1ccn2c(c1)nc(=S)n2C(=O)c1ccco1 | -1.69 |
| O=C(Nc1c2c(nn1-c1ccccc1)CS(=O)C2)c1ccco1 (stereo not drawn) | 10.5 |
| COc1ccc(S(=O)(=O)N2CCN(C(=O)COc3ccc(C)c(C)c3)CC2)cc1OC | -11.1 |
| COc1ccc(-n2c(C)cc(=O)[nH]c2=O)cc1 | 18.4 |
| CC(=O)C1=C(O)C(=O)N(Cc2ccccc2)C1c1cccc([N+](=O)[O-])c1 (stereo not drawn) | 4.38 |
| CCOc1ccc(C(=O)NN2C(=S)NC(C)(C)C=C2C)cc1 | 15.5 |
| CCOC(=O)c1c(NC(=S)N2CCOCC2)sc(C)c1C | 14.5 |
| CCCCNC(=O)CSc1nc(O)c(Cc2ccc(OC)cc2)c(=O)[nH]1 | 7.52 |
| CCN(CC)c1ccc(C=C(c2nnnn2-c2ccccc2)c2nnnn2-c2ccccc2)cc1 | 6.33 |
| CC(C)c1nnc(NC(=O)CCC(=O)N2CCN(c3ccccc3F)CC2)s1 | 13.1 |
| CC(C)(C)c1ccc(NC(=O)COc2ccc(-n3ccnc3)cc2)cc1 | 3.68 |
| O=C(N/C(=C/c1ccco1)C(=O)N1CCOCC1)c1cccs1 | 11.9 |
